The term EC50 denotes the concentration at which the effect is half-maximal. Lower therefore signals greater potency.

Assay [1] concerns the target T1, human CD20 (membrane spanning 4-domains A1, MS4A1) on cells (human, UniProt P11836 1-297).
T1 construct: whole, on cells; Target cells used: Raji, K562-CD20, CHO-CD20, Daudi, RPMI-8226 (very low CD20); also called CD20 receptor; CD20 antigen
T1 sequence (looked up): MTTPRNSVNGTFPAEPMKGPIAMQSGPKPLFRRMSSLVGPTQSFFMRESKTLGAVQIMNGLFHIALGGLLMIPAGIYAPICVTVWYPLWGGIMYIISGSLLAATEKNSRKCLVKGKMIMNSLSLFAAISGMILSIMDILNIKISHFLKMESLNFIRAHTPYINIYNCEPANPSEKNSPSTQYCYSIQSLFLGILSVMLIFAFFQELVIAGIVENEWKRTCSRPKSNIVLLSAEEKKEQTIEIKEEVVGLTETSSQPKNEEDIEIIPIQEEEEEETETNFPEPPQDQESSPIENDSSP
Kind of assay: flow cytometry, mAb titrated on Raji cells, PE anti-human IgG1 Fc detection. From the text:
(§1) Each of three exemplary of anti-CD20 VHH sequences (clone ID: VHH-273, VHH-466 and VHH-496) with human IgG1 Fc fragment sequence (SEQ ID NO: 159) were cloned into a mammalian expression vector—pcDNA3.4, to facilitate the recombinant protein expression. The DNA codons were further optimized for optimal expression in mammalian host cell—Expi293F. The antibodies were harvested from the supernatant of cell culture, one-step purified by MabSelect SuRe LX and sterilized via a 0.2 μm filter. The purified antibody concentrations were determined by A280 and reached 2-6 mg/mL with ˜90% purity. Anti-CD20 scFv-huIgG1Fc mAb with amino acid sequence of Rituximab (C2B8) scFv shown in SEQ ID NO: 158 and anti-CD20 Fab-huIgG1Fc mAb with amino acid sequences of Leul6 VH-CH1 and VL-CL shown in SEQ ID NO: 163 and SEQ ID NO: 164 were used as positive controls for the cell surface binding assay. CD20 positive cell lines—Raji, K562-CD20 and negative cell line—K562 were re-suspended in complete culture medium, cells concentration was diluted to 1×10⁶ cells/mL and the staining was performed in 2×10⁵ cells per well. The mAbs were serially diluted from maximal concentration of 2000 nM (3-fold reduction, 12 pts) and added according to the experimental plan and protocol. The mAbs and cells were co-incubated for 1 hour at 4° C. Then, the cells were washed with […] of DPBS+0.5% FBS and spun at 300 g for 5 mins, 4° C. The cells were stained with the detection antibody—PE-conjugated mouse anti-human IgG1 Fc (BioLegend, Cat. #409304, 1:100) for 40 mins at 4° C. The cells were then washed again and re-suspended with 200 μL of DPBS+0.5% FBS for flow cytometric analysis on a NovoCyte Flow Cytometer (ACEA Biosciences). The FACS data was analyzed by Novoexpress software, and the MFI (median fluorescent intensity) was analyzed by GraphPad PRISM version 6.0.
In general terms: Flow cytometry measures light scatter and fluorescence of single cells or particles in a stream.

The target in assay [2] is T1, human CD20 (membrane spanning 4-domains …). The description is as above.
From the text: as §1
This is another data set of the same source.

For assay [3] the target is unchanged. Kind of assay: flow cytometry, mAb titrated on K562-CD20 cells, PE anti-human IgG1 Fc detection.
From the text: as §1

B1: VHH-466-huIgG1Fc mAb (Fc fusion)
chain: QVHLVESGGGSVQAGGSLRLSCQASADIRLFYLMGWFRQAPGKEREEVARVNADDSINYVASVKGRFTISKDNAKNTLYLQMDSLKPEDTATYYCAAGRTWNSGFEYWGQGTQVTVSS[human IgG1 Fc not printed]
notes: VHH placed before the Fc after the name VHH-huIgG1Fc; also called anti-CD20 VHH-huIgG1Fc mAb (VHH clone ID: VHH-466)
Consider B1, for which the 50% effective concentration (EC50) in assay [1] was 8.9 nM; in assay [2], 9.12 nM; in assay [3] it was 4.7 nM.

B2: VHH-273-huIgG1Fc mAb (Fc fusion)
chain: EVQLVESGGGLVQAGGSLRLSCAASGRTFSSYNMGWFRQAPGKEREFVAVVDWSGGSPYYADSVKGRFTISRDNGKNTVYLQMNSLKPEDTAVYYCAGRVQYGSSWSGDYWGQGTQVTVSS[human IgG1 Fc not printed]
notes: VHH placed before the Fc after the name VHH-huIgG1Fc; Expressed in Expi293F; also called anti-CD20 VHH-huIgG1Fc mAb (VHH clone ID: VHH-273)
Consider B2, for which the EC50 in assay [1] turned out to be 9.8 nM; in assay [2], 14.3 nM; in assay [3], 4.9 nM.

B3: VHH-496-huIgG1Fc mAb (Fc fusion)
chain: QIQLVESGGGLVQPGGSLRLSCAASGFTFSNYPMTWLRQAPGKGLESVSDITSGGDRPYYADSVKGRFTISRDNAKNMLYLEMNSLKTEDTAVYYCATWDRTLTGQGTQVTVSS[human IgG1 Fc not printed]
notes: VHH placed before the Fc after the name VHH-huIgG1Fc; also called anti-CD20 VHH-huIgG1Fc mAb (VHH clone ID: VHH-496); VHH-496-huIgGIFc mAb
Turning to B3, the EC50 in assay [1] is 13.5 nM; in assay [2] it was 16 nM; in assay [3], 5.1 nM.

These data come from patent US20230272104A1 (LEGEND BIOTECH IRELAND, published 2023).
